Laboratory results published in PubChem BioAssay AID504466 (National Center for Advancing Translational Sciences (NCATS), 2011).
Out of some 330,000 compounds screened, about 4,200 (1.3%) were called active. The shares of active, inactive and inconclusive entries below differ from those in the screen. The call rests on the fitted dose curve; in most records, active means well fitted activation curve with a large enough effect; inconclusive means small, poorly fitted or top-dose-only effect; inactive means no such curve, though single readings can be large or run the other way. Potencies of inconclusive entries are doubtful fits and often do not repeat.
Potency means the concentration at half of the fitted maximal effect; tags describe the fitted curve by direction and shape.

Assay: qHTS screen for small molecules that induce genotoxicity in human embryonic kidney (HEK293T) cells expressing luciferase-tagged ELG1; further: nearly all actives have a fitted effect of over 60% in size; on activity change, positive = activation: % of control where 0% means no effect
Conditions: HEK293T ELG1-luciferase reporter, luminescence, 16 h; series mostly up to 46 µM; activity change, positive = activation: at the top concentration
Source text: NIH Molecular Libraries Probe Production Network [MLPCN] NIH Chemical Genomics Center [NCGC] MLPCN Grant: 1 R03 MH092164-01 Assay Provider: Kyungjae Myung, NHGRI, NIH Keywords: MLPCN, qHTS, NCGC, genotoxicity, cancer Assay Overview: Cancer cells divide rapidly compared to normal cells in the body. During cell division, cancer cells need to duplicate their genome by DNA replication. The failure of genome duplication leads to cancer cells' death. Therefore, inhibitors of DNA replication could specifically kill cancer cells. Based on this concept, many chemotherapeutic agents were developed and have been used to treat cancer patients. However, there are a limited number of agents available in the clinical setting, and some of those that do exist have low efficacy and severe side effects. Therefore, if we can find the compounds that effectively block DNA replication either by directly damaging DNA or by inhibiting other cellular mechanisms, the options for cancer treatment will be broadened. With this in mind, we developed a quantitative high-throughput ELG1-luciferase reporter gene assay. Since the level of human ELG1 protein is enhanced in response to genetic stresses, increases in luciferase activity can be used to identify compounds that cause genetic stress.
Assay Protocol Summary: For genotoxicity screening, 2,000 cells in 5 uL/well were dispensed into white, solid-bottom 1536-well plates using a solenoid-based dispenser. Following transfer of 23 nL compound or DMSO vehicle by a pin tool, the plates were incubated 16 hr at 37 °C and 5% CO2. 5 ul ONE-Glo (Promega) was then added to each plate and following a 30 min incubation at room temperature, luciferase activity was quantified on a ViewLux CCD-based plate reader.
With `O=C(Nc1ncccc1O)c1ccc(OCC2CCCO2)cc1` (stereo unspecified) the Potency was active: 1.16 µM.
For `COCCN(C(=O)Nc1ccc(OC)cc1OC)C1CCN(C(C)C)CC1`, the “activity change, positive = activation” value was inactive: 0.0066%.
In the case of `C/C=C/c1ccc(OCCSc2nc(C)cc(=O)[nH]2)c(OC)c1`, the Potency is reported as inconclusive: 20.6 µM [activator, partial curve, poor fit].
In the case of `O=C(CSc1nnc(-c2ccccc2Cl)o1)N1CCCCC1`, the Potency is reported as active: 4.61 µM.
With `Cc1nc(N)sc1-c1csc(N(C)c2ccc(O)cc2)n1` the Potency was inconclusive: 10.3 µM [activator, partial curve].
With `O=C1c2ccccc2S(=O)(=O)N1CCOc1ccccc1` the Potency was inconclusive: 14.1 µM [activator, partial curve, poor fit].
With `O=C(CCn1c(=S)oc2ccccc21)Nc1ccc(F)cc1` the Potency was inconclusive: 29.1 µM [activator, partial curve, poor fit].
In the case of `COC(=O)c1ccc(NC(=O)c2cccc(N3C(=O)C4C5C=CC(C6CC56)C4C3=O)c2)cc1` (stereo unspecified), the Potency is reported as inconclusive: 29.1 µM [activator, single point].
With `C=CCSc1cc(C)nc2c(-c3ccccc3)cnn12` the Potency was inconclusive: 23.1 µM [activator, single point].
With `Cc1ccccc1NC(=O)c1ccc2c(c1)OCCO2` the Potency was inconclusive: 16.4 µM [activator, partial curve, poor fit].
For `Cn1c(-c2ccc(Br)o2)nc2ccccc21`, the Potency was inconclusive: 4.11 µM [activator, partial curve, poor fit].
For `O=C(NNc1ccc([N+](=O)[O-])cc1)C1CC1c1ccccc1` (stereo unspecified), the “activity change, positive = activation” value was inactive: -2.44%.
With `COc1cc([N+](=O)[O-])ccc1N/C=C/C(=O)c1cccs1` the Potency was inconclusive: 0.326 µM [activator, full curve].
For `N=c1oc2ccc(Cl)cc2cc1C(=O)Nc1ccc(F)cc1`, the Potency was inconclusive: 9.2 µM [activator, partial curve].
In the case of `CC1(C(=O)Nc2ccc3c(c2)OCCO3)CC1(Cl)Cl` (stereo unspecified), the Potency is reported as inconclusive: 20.6 µM [activator, partial curve, poor fit].
In the case of `O=C(Nc1ccc(C(F)(F)F)cc1)c1ccc2ncsc2c1`, the Potency is reported as inconclusive: 7.3 µM [activator, partial curve, poor fit].
With `c1cnc2nc(-c3ccc4c(c3)OCO4)cn2c1` the Potency was inconclusive: 16.4 µM [activator, partial curve].
With `O=C(CN1C(=O)c2ccccc2S1(=O)=O)N1CCCCC1` the Potency was active: 16.4 µM.
For `COc1ccc(N2CCN(c3ccc(S(=O)(=O)N(C(C)C)C(C)C)cn3)CC2)cc1`, the “activity change, positive = activation” value was inactive: -16.5%.
In the case of `COc1ccc(Nc2nc(N)nc(CSc3nnc(C)s3)n2)cc1`, the Potency is reported as inconclusive: 18.4 µM [activator, partial curve, poor fit].
In the case of `CCCN1CN=C(Nc2nc3ccccc3o2)NC1`, the Potency is reported as inconclusive: 20.6 µM [activator, single point].
With `Cc1ccc(NC(=O)N2CCc3ccccc3C2)cc1C` the Potency was inconclusive: 5.8 µM [activator, partial curve].
In the case of `Cc1ccccc1OCC(=O)NC(C)c1ccccc1` (stereo unspecified), the “activity change, positive = activation” value is reported as inactive: -2.94%.
With `Cc1[nH]n(-c2ccccc2)c(=O)c1/C=N/NC(=O)c1cccc(F)c1` the Potency was inconclusive: 18.3 µM [activator, partial curve, poor fit].
For `CCc1ccc(N2CCN(C(=O)c3ccc(OC)c(OC)c3)CC2)cc1`, the Potency was inconclusive: 29.1 µM [activator, single point].
For `O=C(/C=C/Nc1ccc(F)c(F)c1)c1ccc(Br)cc1`, the Potency was inconclusive: 7.31 µM [activator, partial curve].
In the case of `Cc1ccc(C(=O)COc2ccc3c(C)cc(=O)oc3c2)cc1`, the “activity change, positive = activation” value is reported as inactive: 0.0873%.
With `COc1cccc(-c2nnc3sc(-c4ccco4)nn23)c1` the Potency was inconclusive: 11.2 µM [activator, partial curve, poor fit].
For `Cc1sc(NC(=S)NC(=O)CCc2ccccc2)c(C(N)=O)c1C`, the Potency was inconclusive: 1.64 µM [activator, full curve, poor fit].
For `COc1ccc(-c2nnc(SCC(=O)Nc3sc4c(c3C#N)CCCC4)n2-c2ccccc2)cc1`, the “activity change, positive = activation” value was inactive: 9.84%.
For `Cc1cc2ncc(-c3ncc(C(F)(F)F)cc3Cl)cn2n1`, the Potency was inconclusive: 0.731 µM [activator, full curve].
With `O=C(O)c1ccc2c3n(nc2c1)-c1ccc(Cl)cc1CO3` the “activity change, positive = activation” value was inactive: 0.686%.
For `NC(=O)[C@@H]1CCCN1C(=O)c1cc(COc2ccc3c(c2)CCCC3)on1`, the Potency was inconclusive: 16.4 µM [activator, partial curve, poor fit].
For `Cc1cccc(C(=O)OCC(=O)NC23CC4CC(CC(C4)C2)C3)c1O`, the “activity change, positive = activation” value was inactive: 14.7%.
In the case of `CSc1ccc(NC(=O)Nc2cc(C)ccn2)cc1`, the Potency is reported as inconclusive: 0.58 µM [activator, full curve].
In the case of `COc1cc(-c2cn[nH]c2N)cc(OC)c1OC`, the Potency is reported as inconclusive: 29.1 µM [activator, single point].
With `Cc1cnc(NC(=O)CCCNC(=O)c2ccc(Cl)cc2)s1` the Potency was inconclusive: 14.6 µM [activator, partial curve, poor fit].
With `Cc1ccc(OCC(=O)O/N=C(\N)c2ccccn2)cc1` the Potency was inconclusive: 9.2 µM [activator, partial curve].
In the case of `CCOC(=O)CCc1c(C)nc2cc(-c3ccc(F)cc3)[nH]n2c1=O`, the Potency is reported as inconclusive: 18.4 µM [activator, partial curve, poor fit].
For `C=C1C(C(=O)Nc2ccc(OC)cc2)C1C(=O)Nc1ccc(OC)cc1` (stereo unspecified), the Potency was inconclusive: 29.1 µM [activator, single point].
With `COc1ccc(NC(=O)c2ccc(C(=O)Nc3ccc(OC)cc3OC)cc2)c(OC)c1` the Potency was inconclusive: 18.3 µM [activator, partial curve, poor fit].
In the case of `CC1CCCCC12NC(=O)N(Cc1cc(=O)n3ccsc3n1)C2=O` (stereo unspecified), the “activity change, positive = activation” value is reported as inactive: 1.16%.
With `Cc1nc(Nc2ccc3c(c2)OCCO3)c2nnn(Cc3ccccc3Cl)c2n1` the Potency was inconclusive: 5.17 µM [activator, partial curve, poor fit].
In the case of `O=C(Nn1cnnc1)c1cc2c(s1)CCCCC2`, the Potency is reported as inconclusive: 18.4 µM [activator, single point].
In the case of `COc1cc(C)ccc1OCc1cc(C(=O)N(Cc2nccn2C)C(C)C)no1`, the Potency is reported as inconclusive: 5.8 µM [activator, partial curve].
In the case of `CN(C(=O)C1CCCN1S(=O)(=O)c1ccc(Cl)cc1)c1ccccc1` (stereo unspecified), the “activity change, positive = activation” value is reported as inactive: 0.137%.
In the case of `COC(=O)CCC(=O)c1oc2ccc(OC)cc2c1N`, the Potency is reported as active: 3.66 µM.
In the case of `Cc1ccc(C2/C(=C(/O)c3cnn(-c4ccccc4)c3C)C(=O)C(=O)N2CCCN2CCOCC2)o1` (stereo unspecified), the Potency is reported as inconclusive: 23.1 µM [activator, partial curve, poor fit].
For `COc1ccc(NC(=O)c2cc(-c3ccncc3)nc3ccccc23)c(OC)c1`, the “activity change, positive = activation” value was inactive: -4.42%.
For `COc1ccc(N(Cc2ccccc2)C(=O)OC(C)(C)C)c(C(=O)N(C)OC)c1`, the “activity change, positive = activation” value was inactive: -0.0387%.
For `CCc1cccc2c(C(=O)CN3C(=O)N(C)C4(CCCCC4)C3=O)c[nH]c12`, the Potency was inconclusive: 32.6 µM [activator, partial curve, poor fit].
With `c1ccc(CSc2nc3ccccc3[nH]2)cc1` the Potency was inconclusive: 4.61 µM [activator, full curve].
With `O=C(Nc1ccc2c(c1)OCCO2)c1ccccn1` the Potency was active: 1.03 µM.
In the case of `Nc1ccc2nc(-c3ccc(Cl)cc3)[nH]c2c1`, the Potency is reported as active: 16.4 µM.
With `CNc1oc(-c2ccc(OCc3ccccc3)cc2)nc1C#N` the Potency was inconclusive: 18.4 µM [activator, single point].
For `O=C(c1ccccc1)n1nc(-c2ccccc2)nc1NCc1ccco1`, the Potency was inconclusive: 29.1 µM [activator, partial curve, poor fit].
For `CS(=O)(=O)c1ccccc1C(=O)Nc1nc2ccccc2[nH]1`, the “activity change, positive = activation” value was inactive: 0.837%.
In the case of `CCn1c2ccccc2c2nc3cc(C(=O)O)ccc3nc21`, the Potency is reported as inconclusive: 20.6 µM [activator, single point].
With `NC(=O)Cn1c(=O)n(CCc2ccccc2)c(=O)c2c3c(sc21)CCCC3` the Potency was inconclusive: 25.9 µM [activator, partial curve, poor fit].
With `CCOC(=O)Cn1nc(-c2ccc(Cl)cc2)cc1N` the Potency was inconclusive: 16.4 µM [activator, partial curve].
With `CCc1ccc(S(=O)(=O)Nc2cc3c(cc2C)n(C)c(=O)n3C)cc1` the Potency was inconclusive: 32.6 µM [activator, partial curve, poor fit].
In the case of `COc1ccc(-n2cc(-c3ccccc3)nc2SC)cc1`, the Potency is reported as inconclusive: 9.2 µM [activator, partial curve, poor fit].
In the case of `CC(=O)N1CCCc2cc(S(=O)(=O)N3CCCC(C(=O)Nc4cccc(C)c4)C3)ccc21` (stereo unspecified), the “activity change, positive = activation” value is reported as inactive: -2.26%.
For `COc1cccc(NC(=O)CN2C(=O)COc3ccc(S(=O)(=O)N4CCOCC4)cc32)c1`, the “activity change, positive = activation” value was inactive: 0.0405%.
For `Cc1ccc(NC(=O)c2nc3nccc(C)n3n2)cc1S(=O)(=O)N1CCCCC1`, the “activity change, positive = activation” value was inactive: 9.84%.
With `CC(=O)Nc1ccc2nc(-c3ccccc3)cn2c1` the Potency was active: 5.8 µM.
For `O=C1NCCN/C1=C\C(=O)c1ccccc1`, the Potency was inconclusive: 20.6 µM [activator, partial curve].
With `CC(=O)c1cccc(NC(=O)c2ccc3ccccc3c2)c1` the Potency was inconclusive: 2.59 µM [activator, full curve].
For `O=C(Nc1ccc(OC(F)F)cc1)c1cc(S(=O)(=O)N2CCCCC2)ccc1N1CCOCC1`, the “activity change, positive = activation” value was inactive: 0.386%.
For `O=C(Nc1nc2ccccc2[nH]1)c1cccs1`, the Potency was inconclusive: 1.46 µM [activator, full curve, poor fit].
In the case of `CCOC(=O)C1(Cc2cccc(OC)c2)CCN(Cc2cnc(C)s2)CC1`, the “activity change, positive = activation” value is reported as inactive: -7.61%.
